# Measured values: publication PMC4336329 (PLoS ONE, 2015)
# Out of some 310,000 compounds screened, about 14,000 (4.5%) showed an effect of 50% or more. Effects have a minus sign here. This is one part of the list.
# Biological target: human ether-à-go-go-related gene (hERG) potassium channel (human, UniProt Q12809)
# Assay: primary screen, population patch clamp on CHO cells stably expressing hERG
# 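Further: peak tail current of the secondary pulse compared with the same well before compound.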
# Chain of human ether-à-go-go-related gene (hERG) potassium channel (Q12809 whole entry, looked up): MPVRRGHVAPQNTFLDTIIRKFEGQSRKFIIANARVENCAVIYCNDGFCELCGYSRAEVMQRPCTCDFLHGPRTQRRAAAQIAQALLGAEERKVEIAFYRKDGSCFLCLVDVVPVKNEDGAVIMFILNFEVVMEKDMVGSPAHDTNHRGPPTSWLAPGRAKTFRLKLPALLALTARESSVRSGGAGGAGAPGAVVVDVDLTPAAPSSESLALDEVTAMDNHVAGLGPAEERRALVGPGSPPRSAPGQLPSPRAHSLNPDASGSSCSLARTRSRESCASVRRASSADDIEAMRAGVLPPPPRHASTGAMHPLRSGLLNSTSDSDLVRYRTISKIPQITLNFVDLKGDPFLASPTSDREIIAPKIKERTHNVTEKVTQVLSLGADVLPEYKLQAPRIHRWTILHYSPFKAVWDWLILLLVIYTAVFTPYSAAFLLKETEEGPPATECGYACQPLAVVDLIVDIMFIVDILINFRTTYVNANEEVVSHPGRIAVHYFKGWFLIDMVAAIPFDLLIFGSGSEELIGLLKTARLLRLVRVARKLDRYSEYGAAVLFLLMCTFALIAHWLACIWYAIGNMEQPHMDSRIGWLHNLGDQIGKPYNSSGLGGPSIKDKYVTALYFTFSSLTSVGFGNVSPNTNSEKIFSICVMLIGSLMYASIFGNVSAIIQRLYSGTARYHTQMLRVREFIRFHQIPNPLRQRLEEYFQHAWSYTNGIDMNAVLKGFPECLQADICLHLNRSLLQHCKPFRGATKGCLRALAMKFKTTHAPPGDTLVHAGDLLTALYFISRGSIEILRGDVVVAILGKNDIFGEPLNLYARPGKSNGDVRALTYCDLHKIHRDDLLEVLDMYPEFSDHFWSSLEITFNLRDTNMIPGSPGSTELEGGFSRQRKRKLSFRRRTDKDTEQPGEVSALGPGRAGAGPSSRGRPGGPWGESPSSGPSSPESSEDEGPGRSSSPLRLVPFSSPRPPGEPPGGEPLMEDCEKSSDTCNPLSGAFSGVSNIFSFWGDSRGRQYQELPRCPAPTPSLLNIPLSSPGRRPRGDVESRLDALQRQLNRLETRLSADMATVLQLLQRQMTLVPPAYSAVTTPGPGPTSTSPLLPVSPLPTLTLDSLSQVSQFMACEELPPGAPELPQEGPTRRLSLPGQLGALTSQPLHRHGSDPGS
row,Structure (SMILES),"hERG current change (%, negative = inhibition) at 10uM [%]"
1,OC(C#CCN1CCCC1)(c1ccccc1)c1cccnc1 (stereo not drawn),-19.3
2,O=C(NCc1ccc(Cl)cc1)c1noc2c1CCCCC2,-9.88
3,Cc1nnc(Nc2ccccn2)c2ccccc12,-33.2
4,CC(C)CC(C)N1CCC(n2nccc2NC(=O)CCc2ccccc2)CC1 (stereo not drawn),-6.38
5,Cc1ccc(S(=O)(=O)N2CCOCC2)cc1C(=O)OCC(=O)c1ccc(Br)cc1,14.7
6,COc1ccc(-c2nc3ccc(C)cn3c2NCc2ccccc2)cc1SC1CCCCC1.O=C(O)C(F)(F)F,0.0523
7,Cc1ccc(NC(=O)COC(=O)c2cccnc2)c(C)c1,17.8
8,O=C(NCCCN1CCOCC1)c1cc(S(=O)(=O)N2CCN(c3ccccc3)CC2)ccc1Cl,-76.6
9,COc1ccc(OC(C)C(=O)Nc2cccc(F)c2)cc1 (stereo not drawn),-0.525
10,Cn1c(=O)oc2cc(NC(=O)CCl)ccc21,3.23
11,CCOc1ccc2nc(N(CCN(C)C)C(=O)/C=C/c3cccs3)sc2c1.Cl,4.24
12,COc1cc(NC(=O)c2ccc3c(c2)OCO3)ccc1NC(=O)C(C)C,11.3
13,CCC1CN(C(=O)N2CCC(C(=O)NCc3ccco3)CC2)c2cc(C)ccc2O1 (stereo not drawn),-10.7
14,COC(=O)c1nc(-c2ccccc2)nc(-c2ccccc2)c1C(=O)OC,-7.46
15,O=C(CCC(=O)c1ccc(-c2ccccc2)cc1)Nc1cccnc1,-11.5
16,COC(=O)C(C(=O)Nc1ccccc1C)C1CCCC1 (stereo not drawn),16.1
17,CC(C)(C)c1cnnn1-c1ccc(NC(=O)c2ccc3c(c2)OCO3)cc1,-17.4
18,CSc1cccc(N/C(=N/S(=O)(=O)c2ccccc2)NN)c1,-13.2
19,CCn1c(C(=O)NC(C)c2ccc3c(c2)OCCO3)cc2sccc21 (stereo not drawn),-10.8
20,COc1ccc(Nc2ncc(C(=O)N3CCN(Cc4ccccc4)CC3)c3ccccc23)cc1,-10.2
21,CCN1CCN(c2cc(=O)n(-c3cc(Cl)ccc3C)c(=O)[nH]2)CC1,-4.48

row,Structure (SMILES),"hERG current change (%, negative = inhibition) at 10uM [%]"
1,COc1ccc(S(=O)(=O)Cc2ccc(C(=O)N3CCN(c4cccc(C)c4)C(C)C3)o2)cc1 (stereo not drawn),-44.4
2,Cc1ccc(C(=O)CSc2nnc(COc3ccc(C#N)cc3)n2-c2ccccc2)cc1,11
3,CC(=O)C(N=Nc1ccccc1)(Sc1nnc(-c2ccccc2)n1-c1ccccc1)C(=O)Nc1ccccc1 (stereo not drawn),3.81
4,O=C(N/N=C/c1c(O)ccc2ccccc12)c1[nH]ncc1Br,11.1
5,O=C(Cc1ccc(-c2ccccc2)cc1)NCc1ccccc1,18.7
6,Cc1nc2c3cnn(-c4ccccc4)c3ncn2n1,21.3
7,O=C(NNC(=O)c1cc(O)c(O)c(O)c1)NC1CCCCC1,13.9
8,O=S(=O)(c1ccccc1Cl)N1CCCC(c2nc(-c3cccnc3)no2)C1 (stereo not drawn),-22.4
9,CC(=O)N1CCN(c2ccc(S(C)(=O)=O)cc2[N+](=O)[O-])CC1,-12.7
10,CN(C)c1ccc(C2Nc3cccc4cccc(c34)N2)cc1,16.3
11,CSCCC(NC(=O)c1ccc(Cl)c([N+](=O)[O-])c1)C(=O)N1CCN(C/C=C/c2ccccc2)CC1 (stereo not drawn),-25.8
12,O=C(Nc1ccc2c(c1)OCO2)C1Cc2ccccc2CN1S(=O)(=O)c1cccs1 (stereo not drawn),4.05
13,Cc1ccc(-n2ncc3c(=O)[nH]c(SCC(=O)N4CCCc5ccccc54)nc32)cc1,1.9
14,CCOc1ccc(C(=O)NC2CC3CCCC(C2)N3Cc2ccccc2)cc1 (stereo not drawn),-57.5
15,CC1O[C@@H](O[C@H](C)CC/C=C/C(=O)O)C(O)C[C@H]1O (stereo partly drawn),4.94
16,COc1ccc(-c2csc3ncnc(NCCO)c23)cc1,8.88
17,Cc1cc(C)n(C(=O)CCC2COc3ccccc3O2)n1 (stereo not drawn),-76.6
18,Cc1ccc(NC(=O)NC2C(NC(=O)Nc3ccc(C)cc3)N(C)C(=O)N2C)cc1 (stereo not drawn),5.92
19,O=C(c1cccc(C(F)(F)F)c1)N1CCN(c2cc(=O)[nH]nc2-c2ccccc2)CC1,-44.3
20,CCc1cc(C(=O)OC)c(NC(=O)C2CC(=O)NN2Cc2ccccc2)s1 (stereo not drawn),-29.7
21,COc1ccc(NC(=O)CCCN2C(=O)C(c3ccccc3)Oc3cccnc32)cc1OC (stereo not drawn),1.23

row,Structure (SMILES),"hERG current change (%, negative = inhibition) at 10uM [%]"
1,c1nc(N2CCCCCC2)c2[nH]cnc2n1,2.29
2,CCCN(CCC)S(=O)(=O)c1ccc(C(=O)Nc2cc3oc4ccccc4c3cc2OC)cc1,3.38
3,CC1(C)Cc2nc3nc(SCC(=O)NCCc4ccccc4)n(-c4ccccc4)c(=O)c3cc2CO1,-21.9
4,CC(Nc1nc(N2CCN(CCO)CC2)nc2ccccc12)c1ccccc1 (stereo not drawn),-60.9
5,CCCC(=O)Nc1ccccc1NC(C)=O,5.07
6,COc1ccc(C(=O)NC2CCCc3c2cnn3-c2cc(F)cc(F)c2)c(OC)n1 (stereo not drawn),14.5
7,COc1cc(C(=O)N2CCN(c3ccc([N+](=O)[O-])cc3)CC2)ccc1OCc1c(C)noc1C,-60.2
8,COc1ccc(N2C(=O)CCC2(C#N)c2ccc(OC)cc2)cc1 (stereo not drawn),3.67
9,Cc1ccc(S(=O)(=O)Nc2ccccc2CNc2ccc(Br)cn2)cc1,13.4
10,O=C(NCCc1ccccc1F)C1CC(=O)N(c2ccccc2)C1 (stereo not drawn),1.17
11,CNS(=O)(=O)c1cccc(C(=O)OCC(=O)c2cc(C)n(-c3ccc4c(c3)OCO4)c2C)c1,1.89
12,N#CCSc1nc2ccccc2c(=O)n1CCC(=O)NC1CCCCC1,1.01
13,Cn1nnnc1SCC(=O)Nc1ccccc1N1CCOCC1,-3.35
14,CCNc1nnc(SCC(=O)N2c3ccccc3NC(=O)CC2C)s1 (stereo not drawn),8.85
15,CCOC(=O)c1c(C)nc2c(c1C)/C(=N/O)CC(C)(C)C2,-7.31
16,CCOc1nc(C)cc(C)c1S(=O)(=O)c1cccc(Cl)c1,9.27
17,O=C(Nc1ncc(Cc2ccccc2)s1)C1CCCO1 (stereo not drawn),8.27
18,Cc1cc(NC(=O)CSc2nnc(CNC(=O)c3ccccc3)o2)no1,4.66
19,COCCSc1ccccc1C(=O)Nc1ccccc1C(C)C,3.89
20,O=S(=O)(CCc1nnc(-c2ccc(Br)cc2)o1)c1ccc(Cl)cc1,4.62
21,CC1CCCC(NC(=O)CSC2CCCCC2)C1C (stereo not drawn),-11.3

row,Structure (SMILES),"hERG current change (%, negative = inhibition) at 10uM [%]"
1,O=C(Cn1cnc2c(nnn2-c2ccccc2)c1=O)N1CCCc2ccccc21,-16.2
2,COc1ccc(-n2c(-c3ccccc3)c[n+]3c2CCC3)cc1.[Br-],-20.5
3,O=c1c(/C=N/N2CCOCC2)c(C(F)(F)F)[nH]n1-c1ccccc1,11.4
4,COC(=O)c1ccc(C)c(NC(=O)C(CCSC)NC(=O)c2cc(OC)c(OC)c(OC)c2)c1 (stereo not drawn),13.6
5,CCN(CCCNC(=O)c1c(C)cc(=O)oc1C)c1cccc(C)c1,-65.3
6,COc1ccccc1NC(=O)C1Cc2ccccc2CN1C(=O)c1ccco1 (stereo not drawn),-6.67
7,O=C(Cn1cnc2c(nnn2Cc2ccccc2F)c1=O)NCc1ccco1,-1.57
8,CNC(=O)COC(=O)c1ccc(NC(=O)CC#N)cc1,11.9
9,OC[C@H]1O[C@@H]2O[C@H]3[C@H](O)[C@@H](O)[C@@H](O[C@H]4[C@H](O)[C@@H](O)[C@@H](O[C@H]5[C@H](O)[C@@H](O)[C@@H](O[C@H]6[C@H](O)[C@@H](O)[C@@H](O[C@H]7[C@H](O)[C@@H](O)[C@@H](O[C@H]1[C@H](O)[C@H]2O)O[C@@H]7CO)O[C@@H]6CO)O[C@@H]5CO)O[C@@H]4CO)O[C@@H]3CO,-0.85
10,CCOC(=O)c1c(N)sc(C(O)(C(F)(F)F)C(F)(F)F)c1-c1ccc(F)cc1,13.7
11,Cc1ccc(NC(=S)Nc2ccc(Br)cc2)cc1,8.58
12,CC(=O)c1cccc(NC(=O)N2CCCC2C(=O)NC2CCCC2)c1 (stereo not drawn),8.81
13,C/C(=N\NC(=O)CSc1nnc(C)s1)c1ccc(Cl)cc1,-15.5
14,CN(CC(=O)Nc1ccccc1Cl)C(=O)Cn1nnc(-c2ccc(F)cc2)n1,-11.7
15,CCN(CC)S(=O)(=O)c1ccc(NS(=O)(=O)c2ccc(OC)c([N+](=O)[O-])c2)cc1,-3.92
16,CCCN(CC(=O)Nc1ccc(F)c(F)c1F)C(=O)C1=COCCO1,0.613
17,Cc1ccc(-c2nc3ccccc3c(=O)n2-n2cccc2)cc1,-2.38
18,CCC(=O)N1CCc2cc(Br)cc(S(=O)(=O)NCC3CCCO3)c21 (stereo not drawn),-7.01
19,S=c1[nH]c(-c2ccccc2)cs1,66.4
20,O=C(NC(=S)Nc1ccc(S(=O)(=O)NC2CCCCC2)cc1)c1cccs1,-0.405
21,Cc1cc(C(=O)CSc2nc(N)cc(=O)[nH]2)c(C)n1-c1ccc(OC(F)F)cc1,-1.41
